# About 110 (5.5%) of roughly 2,000 compounds showed an effect of 50% or more. The list shows a part of the results.
# Target: Genome polyprotein (dengue virus type 2) (UniProt P29990)
# [1] = Thailand/16681/1984, Concentration 25.0 uM, Number of replicates 1.0
smiles,measurement,setting,value
Cc1cc(CO)c2cccc(NC(=O)CCN)c2n1,inhibition,"Thailand/16681/1984, Concentration 49.95 uM, Number of replicates 2.0, Standard deviation 0.675365146636023 %",28.7%
same,inhibition,"Thailand/16681/1984, Concentration 99.9 uM, Number of replicates 2.0, Standard deviation 0.4014376052982588 %",91.2%
CN(CCc1ccc([N+](=O)[O-])cc1)C(=O)C1CCN(c2ccc(C=O)cc2)CC1,inhibition,[1],14.6%
COc1ccc(S(=O)(=O)Nc2ccc(C(=O)Nc3nccs3)cc2)cc1,inhibition,"Thailand/16681/1984, Concentration 49.5 uM, Number of replicates 2.0, Standard deviation 1.1679675653751038 %",3.03%
same,inhibition,"Thailand/16681/1984, Concentration 99.01 uM, Number of replicates 2.0, Standard deviation 0.18833150669698956 %",0.212%
same,inhibition,"Thailand/16681/1984, Concentration 198.0 uM, Number of replicates 2.0, Standard deviation 1.0680790075686786 %",-0.267%
c1ccc2c(C[C@H]3COCCN3Cc3n[nH]c4ccccc34)c[nH]c2c1,inhibition,"Thailand/16681/1984, Concentration 49.5 uM, Number of replicates 2.0, Standard deviation 1.3824178955627795 %",2.4%
same,inhibition,"Thailand/16681/1984, Concentration 99.01 uM, Number of replicates 2.0, Standard deviation 1.1015803784116542 %",5.55%
same,inhibition,"Thailand/16681/1984, Concentration 198.0 uM, Number of replicates 2.0, Standard deviation 1.376431104319201 %",8.09%
O=Cc1ccc(N2CCC(C(=O)N3CCN(Cc4cccc(F)c4)CC3)CC2)cc1,inhibition,[1],12.4%
Cc1cc(CO)c2cccc(Cc3cccc(C(=O)NCC(=O)O)c3)c2n1,inhibition,"Thailand/16681/1984, Concentration 49.95 uM, Number of replicates 2.0, Standard deviation 0.8336363408632846 %",63.2%
same,inhibition,"Thailand/16681/1984, Concentration 99.9 uM, Number of replicates 2.0, Standard deviation 0.025873444538655716 %",79.2%
CCn1ccc2cc(CN3CCC(c4c[nH]c5cccnc45)CC3)ccc21,inhibition,"Thailand/16681/1984, Concentration 49.5 uM, Number of replicates 2.0, Standard deviation 3.7819929973968 %",-5.96%
same,inhibition,"Thailand/16681/1984, Concentration 99.01 uM, Number of replicates 2.0, Standard deviation 3.4981517586460003 %",-3.96%
same,inhibition,"Thailand/16681/1984, Concentration 198.0 uM, Number of replicates 2.0, Standard deviation 3.018690179363585 %",1.45%
COc1cccc(CN(C(=O)C2CCN(c3ccc(C=O)cc3)CC2)C23CC4CC(CC(C4)C2)C3)c1,inhibition,[1],17.5%
Cc1nc(CNC(=O)C2CCN(c3ccc(C=O)cc3)CC2)nc2c1CCCC2,inhibition,[1],15.6%
Cc1cc(CO)c2cccc(NC(=O)CN3CCOCC3)c2n1,inhibition,"Thailand/16681/1984, Concentration 49.95 uM, Number of replicates 2.0, Standard deviation 2.1720644748171827 %",8.27%
same,inhibition,"Thailand/16681/1984, Concentration 99.9 uM, Number of replicates 2.0, Standard deviation 1.8504772771832996 %",15.1%
Cc1nc(N)c2cccc(Cl)c2n1,inhibition,"Thailand/16681/1984, Concentration 49.95 uM, Number of replicates 2.0, Standard deviation 5.075529174302592 %",-8.29%
same,inhibition,"Thailand/16681/1984, Concentration 99.9 uM, Number of replicates 2.0, Standard deviation 2.1313934403537464 %",-8.87%
CC(C)c1cc(CN2CCC3(CC2)C(=O)NCc2ccccc23)n[nH]1,inhibition,"Thailand/16681/1984, Concentration 49.5 uM, Number of replicates 2.0, Standard deviation 0.17429361371661756 %",0.45%
same,inhibition,"Thailand/16681/1984, Concentration 99.01 uM, Number of replicates 2.0, Standard deviation 0.9779542729819841 %",1.01%
same,inhibition,"Thailand/16681/1984, Concentration 198.0 uM, Number of replicates 2.0, Standard deviation 0.6107439126251798 %",1.47%
Cc1cc(CN)c2cccc(Cl)c2n1,inhibition,"Thailand/16681/1984, Concentration 49.95 uM, Number of replicates 2.0, Standard deviation 5.413623438036859 %",-7.74%
same,inhibition,"Thailand/16681/1984, Concentration 99.9 uM, Number of replicates 2.0, Standard deviation 5.696602605148216 %",-7.99%
c1ccc2c([C@H]3CCN(Cc4ccncc4)C3)c[nH]c2c1,inhibition,"Thailand/16681/1984, Concentration 49.5 uM, Number of replicates 2.0, Standard deviation 0.014090386880192304 %",-0.355%
same,inhibition,"Thailand/16681/1984, Concentration 99.01 uM, Number of replicates 2.0, Standard deviation 1.2914376010247381 %",0.401%
same,inhibition,"Thailand/16681/1984, Concentration 198.0 uM, Number of replicates 2.0, Standard deviation 0.37068541016337603 %",3.28%
NCc1cccc(NC(=O)[C@@H](CCC(N)=O)NC(=O)OCc2ccccc2)c1,inhibition,"Thailand/16681/1984, Concentration 49.5 uM, Number of replicates 2.0, Standard deviation 0.6750820884014238 %",-3.1%
same,inhibition,"Thailand/16681/1984, Concentration 99.01 uM, Number of replicates 2.0, Standard deviation 2.465072002477128 %",-1.7%
same,inhibition,"Thailand/16681/1984, Concentration 198.0 uM, Number of replicates 2.0, Standard deviation 2.5897319885400165 %",-0.981%
Nc1ccc(N2CCN(c3cc(C(F)(F)F)nc(-c4ccccc4)n3)CC2)cn1,inhibition,"Thailand/16681/1984, Concentration 49.5 uM, Number of replicates 2.0, Standard deviation 0.9119763740644238 %",3.06%
same,inhibition,"Thailand/16681/1984, Concentration 99.01 uM, Number of replicates 2.0, Standard deviation 1.3799571096656225 %",4.1%
same,inhibition,"Thailand/16681/1984, Concentration 198.0 uM, Number of replicates 2.0, Standard deviation 0.8954529549868189 %",4.98%
Cc1c(C(=O)NCc2nc(CN(C)C)cs2)cc(C2CC2)n1C,inhibition,"Thailand/16681/1984, Concentration 49.5 uM, Number of replicates 2.0, Standard deviation 0.5579625712980171 %",-6.26%
same,inhibition,"Thailand/16681/1984, Concentration 99.01 uM, Number of replicates 2.0, Standard deviation 0.25422877869334853 %",-6.67%
same,inhibition,"Thailand/16681/1984, Concentration 198.0 uM, Number of replicates 2.0, Standard deviation 0.6420178857446275 %",-7.02%
CCn1cc(S(=O)(=O)Nc2ccc(Cl)cc2C(=O)NC)cn1,inhibition,"Thailand/16681/1984, Concentration 49.5 uM, Number of replicates 2.0, Standard deviation 0.5029835247021022 %",-6.21%
C[C@H](NC(=O)C1CCN(c2ccc(C=O)cc2)CC1)c1c(F)cccc1F,inhibition,[1],11.9%
FC(F)c1ncc(CNCc2nnc3ccccn23)s1,inhibition,"Thailand/16681/1984, Concentration 49.5 uM, Number of replicates 2.0, Standard deviation 0.9081037530358488 %",-4.92%
same,inhibition,"Thailand/16681/1984, Concentration 99.01 uM, Number of replicates 2.0, Standard deviation 0.3468554134279225 %",-4.95%
same,inhibition,"Thailand/16681/1984, Concentration 198.0 uM, Number of replicates 2.0, Standard deviation 1.7848092840428398 %",-3.55%
CCCCCC(=O)N[C@H](C(=O)Nc1ccc2[nH]ncc2c1)c1ccc(OCc2ccccc2)cc1,inhibition,"Thailand/16681/1984, Concentration 49.5 uM, Number of replicates 2.0, Standard deviation 1.987384065312995 %",0.193%
same,inhibition,"Thailand/16681/1984, Concentration 99.01 uM, Number of replicates 2.0, Standard deviation 0.5919966150858976 %",-0.962%
same,inhibition,"Thailand/16681/1984, Concentration 198.0 uM, Number of replicates 2.0, Standard deviation 0.13907515919188387 %",5.05%

# — ChEMBL document CHEMBL5606460, “ASAP - DENV-2 NS2B-NS3 protease fluorescence single point” (2024)
